Experimental data: the antibiotic and cytotoxicity screens of Wong et al. (2023)
Some of the results follow.

Experiments:
[1] = tested on: HSkMC (human skeletal muscle cells); experiment: cytotoxicity call (relative viability < 0.9); conditions: 10 µM
[2] = tested on: HepG2; experiment: cytotoxicity call (relative viability < 0.9); conditions: 10 µM
[3] = tested on: S. aureus RN4220; experiment: growth inhibition call (relative growth <= 0.2); conditions: 50 µM

Structure (SMILES): Cc1noc(C)c1S(=O)(=O)N(C)C[C@H]1Oc2ccc(NC(=O)Cc3cn(C)c4ccccc34)cc2CC(=O)N([C@@H](C)CO)C[C@H]1C
- cytotoxicity call [1]: inactive
- cytotoxicity call [2]: inactive
- growth inhibition call [3]: inactive

Structure (SMILES): CC(C)NC(=O)N(C)C[C@H]1Oc2ccc(NC(=O)NC3CCCCC3)cc2C(=O)N([C@@H](C)CO)C[C@H]1C
- cytotoxicity call [1]: inactive
- cytotoxicity call [2]: inactive
- growth inhibition call [3]: inactive

Structure (SMILES): C[C@@H]1CCCCO[C@H](CN(C)S(=O)(=O)c2cccs2)[C@H](C)CN([C@H](C)CO)C(=O)c2cc(NC(=O)C3CCCCC3)ccc2O1
- cytotoxicity call [1]: inactive
- cytotoxicity call [2]: inactive
- growth inhibition call [3]: inactive

Structure (SMILES): C[C@H]1CN([C@@H](C)CO)C(=O)c2cc(NS(=O)(=O)c3ccc(Cl)cc3)ccc2O[C@H]1CN(C)C(=O)Nc1cccc2ccccc12
- cytotoxicity call [1]: inactive
- cytotoxicity call [2]: inactive
- growth inhibition call [3]: inactive

Structure (SMILES): CCN1C[C@]23CN(C(=O)c4ccn[nH]4)C[C@@H](C[C@H]2S1(=O)=O)O3
- cytotoxicity call [1]: inactive
- cytotoxicity call [2]: inactive
- growth inhibition call [3]: inactive

Structure (SMILES): CC(C)NC(=O)N[C@@H]1C=C[C@H](CC(=O)NCCCN(C)C)O[C@H]1CO
- cytotoxicity call [1]: inactive
- cytotoxicity call [2]: inactive
- growth inhibition call [3]: inactive

Structure (SMILES): COc1ccc(S(=O)(=O)N(C)C[C@@H]2OCCCC[C@H](C)Oc3ccc(NC(=O)Nc4ccccc4)cc3C(=O)N([C@@H](C)CO)C[C@H]2C)cc1
- cytotoxicity call [1]: inactive
- cytotoxicity call [2]: inactive
- growth inhibition call [3]: inactive

Structure (SMILES): Cc1ccc(C)c(Cc2cc(Cl)ccc2Cl)c1
- cytotoxicity call [1]: inactive
- cytotoxicity call [2]: inactive
- growth inhibition call [3]: inactive

Structure (SMILES): O=C1O[C@@H](c2ccccc2)[C@@H](c2ccccc2)N2[C@@H](c3ccc(OCCO)cc3)[C@]3(C(=O)Nc4ccc(C#CCCO)cc43)[C@@H](C(=O)N3CCCCCCC3)[C@H]12
- cytotoxicity call [1]: inactive
- cytotoxicity call [2]: inactive
- growth inhibition call [3]: inactive

Structure (SMILES): CNC(=O)C[C@H]1C[C@@H]2CN(S(=O)(=O)c3cccnc3)C[C@@H]2O1
- cytotoxicity call [1]: inactive
- cytotoxicity call [2]: inactive
- growth inhibition call [3]: inactive

Structure (SMILES): CCN1C(=O)[C@H]2[C@H]3[C@H](O)[C@H](O)C/C(=N\OC[C@@H](O)COCc4ccco4)[C@@H]3CC[C@H]2C1=O
- cytotoxicity call [1]: inactive
- cytotoxicity call [2]: inactive
- growth inhibition call [3]: inactive

Structure (SMILES): N[C@H]1CCCN(Cc2cccs2)C1
- cytotoxicity call [1]: inactive
- cytotoxicity call [2]: inactive
- growth inhibition call [3]: inactive

Structure (SMILES): COc1ccc(S(=O)(=O)Nc2ccc3c(c2)CC(=O)N([C@H](C)CO)C[C@H](C)[C@H](CN(C)S(=O)(=O)c2c(C)noc2C)O3)cc1
- cytotoxicity call [1]: inactive
- cytotoxicity call [2]: inactive
- growth inhibition call [3]: inactive

Structure (SMILES): COc1ccc(NC(=O)N(C)C[C@@H]2OCCCC[C@H](C)Oc3ccc(NC(=O)c4ccncc4)cc3C(=O)N([C@H](C)CO)C[C@H]2C)cc1
- cytotoxicity call [1]: inactive
- cytotoxicity call [2]: inactive
- growth inhibition call [3]: inactive

Structure (SMILES): C[C@H](CO)N1C[C@H](C)[C@H](CN(C)CC2CCCCC2)OCCCC[C@H](C)Oc2ccc(NC(=O)Nc3ccccc3)cc2C1=O
- cytotoxicity call [1]: active
- cytotoxicity call [2]: active
- growth inhibition call [3]: inactive

Structure (SMILES): C[C@@H]1CN([C@@H](C)CO)C(=O)c2cc(NS(=O)(=O)c3ccccc3)ccc2O[C@@H]1CN(C)Cc1ccc(Oc2ccccc2)cc1
- cytotoxicity call [1]: inactive
- cytotoxicity call [2]: active
- growth inhibition call [3]: inactive

Structure (SMILES): COc1ccc(CN(C)C[C@@H]2Oc3ccc(NS(C)(=O)=O)cc3CC(=O)N([C@@H](C)CO)C[C@H]2C)cc1
- cytotoxicity call [1]: inactive
- cytotoxicity call [2]: inactive
- growth inhibition call [3]: inactive

Structure (SMILES): O=C(C[C@H]1C=C[C@@H](NC(=O)Nc2ccc3c(c2)OCO3)[C@H](CO)O1)NCCCN1CCOCC1
- cytotoxicity call [1]: inactive
- cytotoxicity call [2]: inactive
- growth inhibition call [3]: inactive

Structure (SMILES): C[C@H](CO)N1C[C@H](C)[C@@H](CN(C)Cc2ccc(-c3ccccc3)cc2)Oc2ccc(NC(=O)Nc3ccc(F)cc3)cc2CC1=O
- cytotoxicity call [1]: inactive
- cytotoxicity call [2]: active
- growth inhibition call [3]: inactive

Structure (SMILES): COc1cccc(S(=O)(=O)N(C)C[C@H]2OCc3cn(nn3)CCCC(=O)N([C@@H](C)CO)C[C@@H]2C)c1
- cytotoxicity call [1]: inactive
- cytotoxicity call [2]: inactive
- growth inhibition call [3]: inactive

Structure (SMILES): Cc1ccc(S(=O)(=O)N(C)C[C@@H]2Oc3ccc(NC(=O)Cn4cnnn4)cc3C(=O)N([C@H](C)CO)C[C@@H]2C)cc1
- cytotoxicity call [1]: inactive
- cytotoxicity call [2]: inactive
- growth inhibition call [3]: inactive

Structure (SMILES): CCS(=O)(=O)NCC[C@@H]1CC[C@@H](NS(=O)(=O)c2ccccc2C)[C@@H](CO)O1
- cytotoxicity call [1]: inactive
- cytotoxicity call [2]: inactive
- growth inhibition call [3]: inactive

Structure (SMILES): Cc1ccc(S(=O)(=O)Nc2ccc3c(c2)C(=O)N([C@H](C)CO)C[C@H](C)[C@H](CN(C)Cc2ccc(C(=O)Nc4ccccc4N)cc2)OCCCC[C@@H](C)O3)cc1
- cytotoxicity call [1]: inactive
- cytotoxicity call [2]: inactive
- growth inhibition call [3]: inactive

Structure (SMILES): CC(C)NC(=O)N(C)C[C@H]1Oc2ccc(NC(=O)c3ccncc3)cc2CC(=O)N([C@@H](C)CO)C[C@H]1C
- cytotoxicity call [1]: inactive
- cytotoxicity call [2]: inactive
- growth inhibition call [3]: inactive

Structure (SMILES): CCCCC[C@@H](O)[C@H]1C(=O)O[C@H](C)[C@@H](O)/C=C/C=C/C=C/C=C/C=C(\C)[C@@H](O)C[C@H](O)C[C@H](O)C[C@H](O)C[C@H](O)C[C@H](O)C[C@@H]1O
- cytotoxicity call [1]: inactive
- cytotoxicity call [2]: inactive
- growth inhibition call [3]: inactive
